In all, about 110,000 compounds went through this assay and about 230 (0.21%) showed an effect of 50% or more. Some of the results follow.
Target: DPAP1 (Plasmodium falciparum, UniProt Q8IIJ9)
Assay: primary screen, percent inhibition; read by cleavage of a fluorogenic dipeptide substrate; higher = more effect of the substance
Design: species or system P. falciparum D10 trophozoite lysates; single well
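Also: 30 min substrate incubation versus DMSO and 10 µM JCP410 controls.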

DPAP1, sequence (Q8IIJ9 whole entry, looked up): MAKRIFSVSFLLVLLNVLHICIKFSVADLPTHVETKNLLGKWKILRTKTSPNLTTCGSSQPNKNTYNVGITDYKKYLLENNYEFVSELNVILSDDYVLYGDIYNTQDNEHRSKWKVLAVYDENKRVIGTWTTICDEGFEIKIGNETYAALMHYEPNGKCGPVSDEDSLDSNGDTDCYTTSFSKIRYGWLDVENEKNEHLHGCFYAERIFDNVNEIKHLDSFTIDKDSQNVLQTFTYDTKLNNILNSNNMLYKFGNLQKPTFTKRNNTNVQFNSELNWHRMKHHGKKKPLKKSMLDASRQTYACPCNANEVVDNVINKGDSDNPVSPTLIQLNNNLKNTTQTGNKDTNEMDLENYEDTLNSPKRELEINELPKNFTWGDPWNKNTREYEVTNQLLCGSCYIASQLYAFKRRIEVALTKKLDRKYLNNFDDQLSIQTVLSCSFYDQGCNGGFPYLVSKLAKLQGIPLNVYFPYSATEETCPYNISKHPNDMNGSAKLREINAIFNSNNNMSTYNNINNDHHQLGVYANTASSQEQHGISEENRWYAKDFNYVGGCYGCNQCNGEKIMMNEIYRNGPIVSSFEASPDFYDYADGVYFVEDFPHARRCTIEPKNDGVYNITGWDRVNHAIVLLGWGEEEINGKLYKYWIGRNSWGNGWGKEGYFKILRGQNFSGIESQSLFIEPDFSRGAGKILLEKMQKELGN

| Compound | % Inhibition @ 10 uM [%] |
| --- | --- |
| CCc1ccc(-n2nc(C)c3c(C(=O)NCc4ccc(C)o4)cc(C)nc32)cc1 | 6.13 |
| CC(O)CN(CCc1ccccc1)CC(C)O (stereo not shown) | -0.603 |
| CC(NC(=O)CCc1ccc(S(=O)(=O)NC2CCCCC2)cc1)c1ccccc1 (stereo not shown) | -2.92 |
| CC(C(=O)NCc1ccco1)n1cc(C(=O)c2ccco2)c2ccccc21 (stereo not shown) | -8.95 |
| O=C1C2CC=C(Cl)CC2C(=O)N1C1CCCCC1 (stereo not shown) | 9.73 |
| COc1nccnc1NS(=O)(=O)c1ccc(NC(=O)c2ccc(Cl)cc2)cc1 | 0.00178 |
| CC(CN(CCN(C)C)Cc1ccccc1)c1ccccc1 (stereo not shown) | -0.292 |
| CC(C)C[C@H](NC(=O)OCc1ccccc1)C(=O)N[C@@H](CCc1ccccc1)C(=O)CN(Cc1ccccc1)C(=O)OCc1ccccc1 | 0.744 |
| O=C(COc1ccc(Br)cc1)Nc1ccccc1C(F)(F)F | -2.5 |
| COc1cc(C2Nc3c(C)cccc3-c3cc(C)nn32)cc(OC)c1O (stereo not shown) | -0.116 |
| Nc1cc(Br)cc2cccnc12 | -0.856 |
| CCN(CC)C(=O)C1CCCN(Cc2ccc(SC)cc2)C1 (stereo not shown) | -6.36 |
| COc1ccc(N(CC(=O)N2CCCCCC2)S(=O)(=O)c2ccc(OC)c(OC)c2)cc1 | -1.36 |
| C#CCOc1c(Br)cc(C2C(C#N)=C(N)Oc3[nH]nc(C)c32)cc1OC (stereo not shown) | 3.92 |
| COc1cc2c(cc1OC)C(c1ccc(C)cc1)N(C)CC2 (stereo not shown) | -6.29 |
| CCOC(=O)C1=C(C)OC(N)=C(C#N)C1c1cccc2ccccc12 (stereo not shown) | 3.03 |
| CCOc1ccc(N2C(=O)CC(NCc3ccncc3)C2=O)cc1 (stereo not shown) | 10.7 |
| COCCNC(=O)C1c2ccccc2C(=O)N(CCOC)C1c1c[nH]c2ccccc12 (stereo not shown) | 1.86 |
| CCOCCCNC(=O)c1ccc2c(c1)ncn2-c1cc(OC)c(OC)c(OC)c1 | 1.2 |
| O=S(=O)(c1ccccc1)c1nnn2c1nc(NCc1ccc3c(c1)OCO3)c1ccccc12 | -6.68 |
| Cc1cccn2c(=O)c3cc(C(=O)Nc4ccccc4)n(C)c3nc12 | 5.26 |
| CCc1ccc(OCC(=O)Nc2ccc(S(=O)(=O)Nc3nccs3)cc2)c(Br)c1 | -1.11 |
| CCc1c(C)sc(NC(=O)c2cc(-c3cc(OC)ccc3OC)on2)c1C#N | 1.15 |
| CCOC(=O)C1=C(CN2CCN(c3ncccn3)CC2)NC(=O)NC1c1cccs1 (stereo not shown) | -0.913 |
| O=C(COc1ccc(Cl)cc1)Nc1cc(Cl)cc(Cl)c1 | 4.96 |

| Compound | % Inhibition @ 10 uM [%] |
| --- | --- |
| O=C(CC1CS(=O)(=O)CC1CC(=O)Nc1ccccc1)Nc1ccccc1 (stereo not shown) | 4.28 |
| CC1CN(Cc2ccccc2)CCC1(O)c1ccccc1 (stereo not shown) | 3.1 |
| O=P(O)(CN1CCCCCC1)CN1CCCCCC1 | -4.18 |
| CCOc1ccc(C(C)NC(=O)c2ccccc2OC)cc1OCC (stereo not shown) | 0.475 |
| O=C(O)C1C2c3ccccc3C(c3ccccc32)C1C(=O)Nc1ccccc1 (stereo not shown) | -1.74 |
| CN1CC2CCCC3(C1)C(=O)NC1(CCCCC1)N=C23 (stereo not shown) | -9.63 |
| NC(=O)C1CCN(Cc2ccc(Cl)cc2)CC1 | -1.64 |
| O=c1oc(-c2cccs2)nc2ccccc12 | -2.18 |
| COc1ccc(NC(=O)c2ccc(Cl)cc2)c([N+](=O)[O-])c1 | 2.46 |
| N#C/C(=C(/O)c1ccco1)c1nc2ccccc2s1 | -4.43 |
| O=C1CCCc2sccc2N1 | 5.92 |
| CC(C)Cn1cc(NC(=O)NCCc2ccco2)c2ccccc2c1=O | 2.76 |
| Nc1nc(-c2cccnc2)nn1S(=O)(=O)c1ccccc1 | 5.5 |
| CCC(C(=O)NCc1ccco1)n1c(SCc2ccc(F)cc2)nc2cccnc21 (stereo not shown) | -2.5 |
| CCn1c(=O)c2sccc2n2c(CCCC(=O)NCCNC(C)=O)nnc12 | 4.48 |
| COc1cc(C2C(C#N)=C(N)OC3=C2C(=O)CC(C)(C)C3)cc(OC)c1O (stereo not shown) | -0.0372 |
| COCC(C)NCc1ccc(F)c(F)c1 (stereo not shown) | 0.177 |
| CC(C)(C)n1nc2c(c1NC(=O)c1c(F)cccc1F)CS(=O)(=O)C2 | 0.111 |
| O=C(Nc1cc2c(oc1=O)CCCC2=O)c1ccccc1 | -0.424 |
| CC(C)C(NS(=O)(=O)c1cccc2nsnc12)C(=O)Nc1nccs1 (stereo not shown) | -4.1 |
| COc1ccc(NC(=O)c2ccc3c(c2)C(=O)N(CC2CCCO2)C3=O)cc1O (stereo not shown) | -0.496 |
| CN1CCCN(Cc2cccc(F)c2)CC1 | -0.192 |
| O=C(NC1(C(F)(F)F)NC(=O)N(CCc2ccccc2)C1=O)c1ccccc1 (stereo not shown) | 3.54 |
| COc1cc2oc(=O)c(CC(=O)NCc3ccco3)c(C)c2cc1OC | 0.895 |
| CCc1c(C)sc(NC(=O)c2cc(-c3ccc(O)cc3)on2)c1C#N | 6.29 |

| Compound | % Inhibition @ 10 uM [%] |
| --- | --- |
| c1cncc(CNCCc2c[nH]c3ccccc23)c1 | 0.147 |
| O=C(CCC(=O)N1CCN(c2cccc(Cl)c2)CC1)N1CCN(c2cccc(Cl)c2)CC1 | 4.39 |
| Cc1cccc(NC(=O)CN(c2ccc(Br)cc2)S(C)(=O)=O)c1 | -5.67 |
| COP(=O)(OC)C(Nc1ccc(Cl)c(Cl)c1)c1ccc(Br)cc1 (stereo not shown) | 0.00178 |
| COc1ccc(NC(=O)CN(c2cccc(F)c2)S(C)(=O)=O)cc1OC | 0.889 |
| CCN(CC)S(=O)(=O)c1ccc2ncc(C(=O)NCCc3ccc(OC)c(OC)c3)c(O)c2c1 | -6.91 |
| O=C(NC1=NCCS1)C1CC(=O)N(c2ccc(F)cc2)C1 (stereo not shown) | -5.3 |
| COc1cccc(N(CC(=O)Nc2ccc(OC)cc2OC)S(C)(=O)=O)c1 | 2.02 |
| O=C(NC1(C(F)(F)F)N=C2SCCN2C1=O)c1ccccc1F (stereo not shown) | -5.4 |
| CC(=O)NC(CC(=O)O)c1ccccc1 (stereo not shown) | -6.82 |
| CCCN1C(=O)C(O)(CC(=O)c2cccs2)c2ccccc21 (stereo not shown) | 3.17 |
| COc1ccc(-c2nc3c(=O)[nH]c(=O)n(C)c3[nH]2)cc1 | -3.05 |
| O=C(NCc1ccc(OC(F)(F)F)cc1)C1CCN(c2cnccn2)CC1 | -6.43 |
| CC(=C1C(=O)c2ccccc2C1=O)N1CCN(CCO)CC1 | -9.79 |
| CCc1ccc(CN(Cc2ccco2)C(=O)COc2ccccc2)cc1 | 2.29 |
| COc1ccc(C(=O)N(Cc2nc(-c3ccc(C)cc3)no2)C(C)C)cc1OC | 3.33 |
| CCN1C=C(Cc2ccc(F)cc2)C2=C(C1)C(c1ccc(F)cc1)C(C#N)=C(N)O2 (stereo not shown) | 4.32 |
| N#Cc1c(NC(=O)c2ccc(Cl)c(S(=O)(=O)N3CCOCC3)c2)sc2c1CCCC2 | -3.26 |
| O=C(NC1CCCCC1)c1ccc(Br)c(S(=O)(=O)N2CCCCC2)c1 | 5.43 |
| COc1cc(CNc2ccc3c(c2)OCCO3)ccc1OCC(=O)NC1CCCCC1 | -1.63 |
| COc1ccc(/C=C2\S/C(=N/c3ccc(C(=O)O)cc3)N(C)C2=O)cc1O | -3.23 |
| CCOc1ccc(CN(C(=O)Cc2coc3ccc(C)cc23)C2CCS(=O)(=O)C2)cc1 (stereo not shown) | 2.62 |
| Brc1c(CSc2nc3ccccc3[nH]2)nc2ccccn12 | -5.41 |
| COc1cc(CNC(C)C23CC4CC(CC(C4)C2)C3)ccc1OCC(=O)NC(C)(C)C (stereo not shown) | -1.43 |
| CCCCn1c(=N)c(C#N)cc2c(=O)n3cccc(C)c3nc21 | -2.83 |

| Compound | % Inhibition @ 10 uM [%] |
| --- | --- |
| CCC(Cc1ccccc1)NC(=O)C1CCCN(c2nnc(-n3cccc3)s2)C1 (stereo not shown) | -2.25 |
| CCOC(=O)c1cccc2c1S(=O)(=O)CCC2=O | -1.51 |
| Cc1cc(C2(c3ccc(O)c(C)c3)OC(=O)c3ccccc32)ccc1O | 0.238 |
| Cc1ccc(Cn2c(=O)n(Cc3ccc4c(c3)OCO4)c(=O)c3oc4ccccc4c32)cc1 | 7.33 |
| C#CCn1c(Cc2ccc(OC)cc2)nc2ccccc21 | 2.73 |
| COc1ccc(OC)c(C2=NOC(C(=O)Nc3cc(C)on3)C2)c1 (stereo not shown) | -7.71 |
| Cc1ccc(CNC(=O)CN(C)S(=O)(=O)c2ccc(-c3cc(C)no3)cc2)cc1 | -3.47 |
| Cc1cccc(OCC(=O)Nc2sc(C)c(C)c2C(N)=O)c1 | -1.61 |
| O=C(Cn1c2ccccc2c2cnnc(O)c21)N1CCCCC1 | 1.38 |
| COc1ccccc1CNC(=O)Nc1cccs1 | -1.6 |
| CN(C)c1ccc(Nc2nc(-c3ccccn3)cs2)cc1 | 2.65 |
| Nc1cc(=O)nc(SCCOc2ccccc2)n1-c1ccccc1 | 2.08 |
| COC(=O)CCC(=O)NC(C)c1ccccc1 (stereo not shown) | -2.51 |
| Cc1noc2ncnc(NCc3cccnc3)c12 | -4.4 |
| N/C(=N\c1ccccc1)Nc1nc(O)c2c(n1)CCC2 | -1.98 |
| CC(C)c1ccccc1OCC(=O)Nc1ccccc1Br | 1.08 |
| CCOC(=O)N1CCC(NC(=O)CS(=O)(=O)Cc2nc(-c3ccc(OC)cc3)oc2C)CC1 | -0.138 |
| Cc1ccc(C)c(CS(=O)(=O)c2cn(CC(=O)N3CCCC3)c3ccccc23)c1 | 2.73 |
| COc1ccc(/C=C/c2nn3c(-c4ccco4)nnc3s2)cc1 | 4.94 |
| COc1ccc(C2C(C#N)=C(N)N(c3ccccc3)C3=C2C(=O)CC(C)(C)C3)cc1OC (stereo not shown) | 3.72 |
| CN1CCCCC/C1=N/C(=S)CN1CCCC1=S | 8.26 |
| O=C(Nc1ccc(CN2CCOCC2)cc1)c1ccc(F)cc1 | 1.83 |
| Cc1ccc(NC2=NC(=O)C(CC(=O)Nc3ccccc3)S2)cc1C (stereo not shown) | -1.95 |
| CCn1c(C)c(CCC(=O)NCCC2=NCc3ccccc32)c(=O)n2nc(-c3ccccc3OC)cc12 | 1.26 |
| CC(=O)NC1(C(F)(F)F)C(=O)Nc2c1c(=O)[nH]c(=O)n2-c1ccc(F)cc1 (stereo not shown) | -3.34 |

Reference: article PMC6919601, “Identification of Plasmodium dipeptidyl aminopeptidase allosteric inhibitors by high throughput screening” (PLoS ONE, 2019)
